Laboratory results taken from PMC4336329 (PLoS ONE, 2015).
The campaign covered roughly 310,000 compounds. About 14,000 (4.5%) showed an effect of 50% or more. The effect is printed as a negative number. The list shows a part of the results.

target: human ether-à-go-go-related gene (hERG) potassium channel (human, UniProt Q12809); test: primary screen, population patch clamp on CHO cells stably expressing hERG
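Note: peak tail current of the secondary pulse compared with the same well before compound.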

Sequence of human ether-à-go-go-related gene (hERG) potassium channel (Q12809 whole entry, looked up): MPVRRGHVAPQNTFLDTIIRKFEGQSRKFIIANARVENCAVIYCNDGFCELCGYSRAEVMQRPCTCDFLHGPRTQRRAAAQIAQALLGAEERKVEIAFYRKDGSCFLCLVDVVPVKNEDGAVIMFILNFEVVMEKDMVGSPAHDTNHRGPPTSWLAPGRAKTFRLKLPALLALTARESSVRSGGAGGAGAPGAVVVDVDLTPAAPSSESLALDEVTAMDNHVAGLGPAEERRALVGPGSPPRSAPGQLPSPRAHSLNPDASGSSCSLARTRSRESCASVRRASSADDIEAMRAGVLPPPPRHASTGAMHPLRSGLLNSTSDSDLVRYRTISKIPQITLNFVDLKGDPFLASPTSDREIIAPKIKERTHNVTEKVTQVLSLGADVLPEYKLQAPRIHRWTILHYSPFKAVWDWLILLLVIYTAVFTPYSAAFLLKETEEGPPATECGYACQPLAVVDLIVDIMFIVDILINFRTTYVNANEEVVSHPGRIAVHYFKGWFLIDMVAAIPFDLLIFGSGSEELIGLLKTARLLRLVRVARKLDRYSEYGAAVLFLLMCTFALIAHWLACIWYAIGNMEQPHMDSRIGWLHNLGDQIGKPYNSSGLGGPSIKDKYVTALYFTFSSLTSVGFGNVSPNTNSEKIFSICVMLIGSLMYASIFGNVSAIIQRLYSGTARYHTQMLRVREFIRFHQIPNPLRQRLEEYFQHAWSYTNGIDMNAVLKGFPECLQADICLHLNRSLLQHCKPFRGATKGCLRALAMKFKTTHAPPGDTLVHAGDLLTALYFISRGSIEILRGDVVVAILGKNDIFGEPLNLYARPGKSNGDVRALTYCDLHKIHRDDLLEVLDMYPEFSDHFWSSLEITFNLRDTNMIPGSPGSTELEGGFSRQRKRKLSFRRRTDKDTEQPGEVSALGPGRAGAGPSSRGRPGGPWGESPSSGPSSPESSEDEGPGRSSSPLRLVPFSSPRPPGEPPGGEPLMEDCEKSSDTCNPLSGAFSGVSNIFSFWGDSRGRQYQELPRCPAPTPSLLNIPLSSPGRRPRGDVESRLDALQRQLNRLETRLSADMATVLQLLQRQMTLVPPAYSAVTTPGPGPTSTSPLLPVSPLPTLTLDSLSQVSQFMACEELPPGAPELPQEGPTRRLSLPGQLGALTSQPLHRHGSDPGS

Structure (SMILES) | hERG current change (%, negative = inhibition) at 10uM [%]
CCOc1cc(C(=O)N/N=C/C(Br)=C/c2ccccc2)cc(OCC)c1OCC | -11.8
CC1(C)CC(=O)c2cc(OCC(=O)N3CCN(c4ccccc4F)CC3)ccc2O1 | -25.9
Cc1cc(C)cc(N=Cc2[nH]c3ccc(Br)c(Cl)c3c2O)c1 | 9.23
COc1cc(NC(=O)c2ccccc2)c(OC)cc1NC(=O)CN1CCCCC1.Cl | -8.77
CCCS(=O)(=O)N1CCc2cc(OC)c(OC)cc2C1 | 10.2
Cc1noc(C)c1COC(=O)C1CCN(S(=O)(=O)c2c(Cl)cccc2Cl)CC1 | -23.4
CN(CC(=O)NCc1ccccn1)S(=O)(=O)c1ccc(Cl)cc1 | -12
CC(=O)n1cc(/C=N/NC(N)=S)c2ccccc21 | -18.4
CCOc1ccccc1OCC(=O)NCc1ccco1 | -1.25
Cc1ccc([N+](=O)[O-])cc1NC(=O)CSc1nncn1-c1ccccn1 | -22.8
Cc1cccc(NC(=S)NCc2cccn2C)c1 | -1.46
CCCc1nc2scc(-c3ccccc3)c2c(=O)n1N | -1.24
COc1ccc(/C=C/C(=O)NNc2cc(=O)n(C)c(=O)n2C)cc1OC | 11.5
Cc1cccc(C(=O)C2CCOC(C)(C)C2)c1 (centres unmarked) | 13
N#CC1(NC(=O)CN2CCN(S(=O)(=O)c3ccccc3F)CC2)CCCC1 | -11.6
CCC(C)(NC(=O)c1ccc(=O)[nH]c1)C(=O)NC1CCCC1 (centres unmarked) | 6.62
c1ccc(Cn2ccc(-c3cnc(-c4ccccc4)s3)n2)cc1 | 13.2
CCOc1ccc(-c2nnc3sc(COc4ccccc4)nn23)cc1 | 19
Cc1ccsc1C(=O)C1CCCN(Cc2cn(C)nc2-c2ccccc2)C1 (centres unmarked) | -32.1
COc1ccccc1NC(=O)C(=O)NNC(=O)c1ccco1 | 9.88
COc1cccc(NC(=O)Cn2c(=O)n(CCC(=O)NCc3ccco3)c(=O)c3ccccc32)c1 | -12.3
CN(C(=O)CSc1nc2ccccc2o1)C1CCS(=O)(=O)C1 (centres unmarked) | -10.5
C/C=C/C(=O)Nc1ccc(N2CCN(c3ccc(C(F)(F)F)cn3)CC2)nc1 | 7.8

Structure (SMILES) | hERG current change (%, negative = inhibition) at 10uM [%]
COc1ccc(NC(=O)COc2ccc(C(=O)OCC(=O)N(C)C3CCS(=O)(=O)C3)cc2OC)cc1 (centres unmarked) | 8.02
COc1cc(O)cc2c1[C@@H]1Oc3c(ccc(O)c3CC=C(C)C)[C@@H]1CO2 | -0.905
CCN(CC)S(=O)(=O)c1ccc(C(=O)N2CCN(C3=NS(=O)(=O)c4ccccc43)CC2)cc1 | -18.4
O=C(OCc1nc2scc(-c3ccccc3)c2c(=O)[nH]1)c1cccc([N+](=O)[O-])c1 | 4.27
O=c1c2ccccc2n2c(-c3cccc(Cl)c3)nnc2n1Cc1ccccc1 | -11.8
CC(=O)c1cccc(NC(=O)CN(C)S(=O)(=O)c2ccc3c(c2)CC(C)N3C(C)=O)c1 (centres unmarked) | 16.1
COc1cc(/C=C2/SC(=S)N(CC(=O)O)C2=O)ccc1OC(=O)c1cccs1 | 12.6
O=C(c1cccnc1)N(Cc1ccccc1)c1ccccc1 | -23.4
CCOCCCNC(=S)N(CCCN(C)C)Cc1cc2cc3c(cc2[nH]c1=O)OCCO3 | 2.91
O=C(Nc1cc(=O)[nH]c(=O)[nH]1)c1cc(Cl)ccc1Cl | 19.3
Clc1cccc(Cl)c1CO/N=C/c1cccs1 | 4.29
N#CC1=C(c2ccccc2)/C(=C/c2ccccc2)OC1=O | 14.7
O=C(NCc1ccccc1)NC1(C(=O)N2CCOCC2)CCCCC1 | 1.43
COc1ccc(S(=O)(=O)Nc2ccc3c(c2)OCCO3)cc1Cl | -30.1
Nc1ccc([N+](=O)[O-])cc1 | 21.5
CNC(=S)NNC(=O)c1sc2cc(C(F)(F)F)cnc2c1-c1ccccn1 | 13.6
COC(=O)C1CCN(C(=O)COC(=O)Cc2c[nH]c3ccccc23)CC1 | 3.1
CCOc1cccc(=O)c2c(C)n(-c3ccc(C(=O)O)cc3)c(C)c12 | 32
CC1CN(C(=O)CCC(=O)N2CCN(c3cccc(C(F)(F)F)c3)CC2)c2ccccc2O1 (centres unmarked) | -31.3
CC1(C)Cc2c(cnn2-c2ccc(F)cc2)C(NC(=O)c2ccoc2)C1 (centres unmarked) | -89.1
O=C(NC(C(=O)c1ccccc1)N1CCCCC1)c1ccccc1 (centres unmarked) | -7.34
O=C(CCc1nnc2n(Cc3ccc(F)cc3)c(=O)c3ccccc3n12)NCCCN1CCOCC1 | -16.4
COc1cc(C(=O)NC2CCN(Cc3ccccc3)CC2)cc(Cl)c1OC | -44.3

Structure (SMILES) | hERG current change (%, negative = inhibition) at 10uM [%]
CC(OC(=O)/C=C/c1ccco1)C(=O)NC1CCCCC1C (centres unmarked) | -3.2
CC1(c2ccccc2)NC(=O)N(CC(=O)N2CCOCC2)C1=O (centres unmarked) | 3.77
O=C(CCCSc1ccc(Cl)cc1)Nc1ccccc1O | 18.1
O=C(c1ccc(F)cc1)N1CCN(c2ccc([N+](=O)[O-])c(N3CCCCC3)c2)CC1 | -15.3
Cc1cccc(C)c1NC1=C(Cl)C(=O)OC1OC(C)C (centres unmarked) | 21.2
O=C(Nc1nccs1)c1cn2ccccc2n1 | 7.71
COc1ccc(C(=O)CCC(=O)NCCc2c[nH]c3ccccc23)cc1 | 34.4
CC(=O)N1CCN(c2ccnc3cc(Cl)ccc23)CC1 | -50.4
Nc1ccc(C(=O)OCc2nc3c(ccc4ccccc43)[nH]2)cc1 | 14.6
O=C(c1ccccc1OC(F)F)N1CCN(S(=O)(=O)c2ccc3c(c2)OCCCO3)CC1 | -26.8
CCOc1cc(/C=N/NC(=O)c2cccnc2)ccc1O | 10
CC(C)Oc1ccc(OCCCN2CCCCCC2)cc1.O=C(O)C(=O)O | -54.8
Cc1noc(C)c1C(=O)N1CCN(Cc2ccccc2)CC1 | 10.4
CCOc1ccc(NC(=O)C2CCCN(C(=O)Nc3ccccc3)C2)cc1 (centres unmarked) | 2.35
CC(=O)c1c(C)[nH]c(C(=O)COC(=O)c2cc(S(=O)(=O)N(C)c3ccccc3)ccc2Cl)c1C | 3.37
N=c1c(C(=O)NCc2ccco2)cc2c(=O)n3ccccc3nc2n1CCc1ccccc1 | -76.7
O=C(NCCc1ccc(Cl)cc1)C1CCN(S(=O)(=O)N2CCCC2)CC1 | -52.3
O=C(COc1ccc(Cl)cc1Br)N1CCN(S(=O)(=O)c2ccccc2)CC1 | -9.19
CSc1ccccc1NC(=O)c1ccc(CN2CCOCC2)cc1 | 4.69
O=S(=O)(c1ccc(F)cc1)c1nc(-c2ccccc2F)oc1N1CCCCC1 | -20
Cc1cc(C(=O)O)ccc1-c1ccc(CO)o1 | 24.3
Cc1ccc(OCC(=O)Nc2ccc(S(=O)(=O)N3CCCCC3)cc2)c([N+](=O)[O-])n1 | 10.4
CCNC(=O)c1cc2ccccc2o1 | 5.18

Structure (SMILES) | hERG current change (%, negative = inhibition) at 10uM [%]
Cc1ccc(Cn2c(CN3CCN(C(=O)c4ccco4)CC3)nc3c2c(=O)n(C)c(=O)n3C)cc1 | -54.2
O=C(O)c1nn(Cc2nc3ccccc3o2)c(=O)c2ccccc12 | 20.6
N#Cc1ccccc1OCC(=O)OCC(=O)NC1CCS(=O)(=O)C1 (centres unmarked) | -6.74
COc1ccc2nc(NC(=O)c3cccc(S(=O)(=O)N4CCOCC4)c3)sc2c1 | -7.11
CCc1ccccc1NC(=O)COC(=O)c1c(C)nsc1NC | -2.87
CCN(CC(=O)Nc1c(F)cccc1F)C(=O)CCNC(=O)c1ccc([N+](=O)[O-])cc1 | -55.4
COc1ccc(N=Cc2cc3c(cc2O)OC(N)=C(C#N)C3c2ccccc2)cc1 (centres unmarked) | 7.37
O=C1NC(=O)C2(COC(c3cccnc3)OC2)S1 (centres unmarked) | 16.1
O=C1S/C(=C\c2ccccn2)C(=O)N1Cc1ccccc1F | 9.45
COc1cccc(N2[C@@H](CC(C)=O)c3ccc(/C=C/C(C)=O)cc3S2(=O)=O)c1 | -11.7
NC1=NC(=O)/C(=C\c2ccco2)S1 | 19.2
CC1CN(C(=O)c2ccccc2Oc2ccccc2)CC(C)O1 (centres unmarked) | -6.99
CCC(C)c1ccc(O)c(NC(=O)c2cncc(Br)c2)c1 (centres unmarked) | -15.4
Cc1ccc(CNC(=S)Nc2cc(C)ccc2OC(F)F)cc1 | 0.274
CSc1ncccc1C(=O)NC1CCCCCC1 | 39.2
Cc1ccc(N=Nc2ccc(O)c3ncccc23)cc1 | 3.33
CC(=O)N1CCC(C(=O)Nc2ccccc2)(N(Cc2ccccc2)C(=O)c2cccnc2)CC1 | 16.1
Cc1nc(NC(=O)c2ccc(Br)o2)sc1C | -0.217
CCCn1c(SCC(=O)N2CCCC(C)C2)nnc1-c1cccnc1 (centres unmarked) | -16.9
COc1cccc(NC(=O)CN(C)C(=O)Cn2[nH]c(=O)c3ccccc3c2=O)c1 | 25.4
